In a compilation of properties of binary mixtures (doi:10.1021/jp502400z):
The densities may have been worked out from excess volumes.

Assay: xn = mol fraction of the nth substance listed
Settings: 298.15 K, 101 kPa

CC(=O)[O-].C[NH+](C)C + O
Settings | mass density [kg/m3]
x1 = 0.0451 | 1011.9
x1 = 0.0651 | 1017
x1 = 0.0978 | 1023.7
x1 = 0.1283 | 1028.3
x1 = 0.1524 | 1031.5
x1 = 0.2133 | 1037.4
x1 = 0.3002 | 1043
x1 = 0.328 | 1044.2
x1 = 0.3943 | 1046.7
x1 = 0.4341 | 1047.8
x1 = 0.4797 | 1048.9
x1 = 0.5325 | 1049.8
x1 = 0.6292 | 1051.2
x1 = 0.7094 | 1051.9
x1 = 0.7556 | 1052.3
x1 = 0.9278 | 1053.4
x1 = 1 | 1053.8

CC[NH+](CC)CC.O=S(=O)([O-])O + O
Settings | mass density [kg/m3]
x2 = 0 | 1142.9
x2 = 0.1228 | 1141.2
x2 = 0.2209 | 1139.5
x2 = 0.3679 | 1136.1
x2 = 0.4728 | 1132.6
x2 = 0.5147 | 1130.8
x2 = 0.6613 | 1121.5
x2 = 0.7011 | 1117.7
x2 = 0.7866 | 1106.2
x2 = 0.8075 | 1102.3
x2 = 0.869 | 1086.9
x2 = 0.9091 | 1071.8
x2 = 0.9432 | 1053
x2 = 0.9627 | 1038.5
x2 = 0.9743 | 1027.5

CC[NH2+]CC.O=S(=O)([O-])O + O
Settings | mass density [kg/m3]
x2 = 0.1212 | 1279.7
x2 = 0.2183 | 1275.9
x2 = 0.2979 | 1272.3
x2 = 0.3644 | 1268.9
x2 = 0.4207 | 1265.3
x2 = 0.5476 | 1253.6
x2 = 0.6578 | 1237.1
x2 = 0.6979 | 1228.8
x2 = 0.7314 | 1220.3
x2 = 0.7841 | 1203.1
x2 = 0.8051 | 1194.5
x2 = 0.8673 | 1161.3
x2 = 0.9079 | 1130
x2 = 0.9233 | 1115.2
x2 = 0.9424 | 1093.9
x2 = 0.9622 | 1066.9
x2 = 0.9741 | 1048.2

C[NH+](C)C.O=S(=O)([O-])O + O
Settings | mass density [kg/m3]
x2 = 0 | 1467.6
x2 = 0.1369 | 1457
x2 = 0.1942 | 1451.6
x2 = 0.2919 | 1440.6
x2 = 0.3723 | 1429.4
x2 = 0.4691 | 1412.2
x2 = 0.5219 | 1400.5
x2 = 0.6073 | 1376.8
x2 = 0.6734 | 1352.9
x2 = 0.7012 | 1340.9
x2 = 0.7878 | 1292.7
x2 = 0.8724 | 1220.1
x2 = 0.9027 | 1184.4
x2 = 0.9352 | 1137.1
